The values below come from article PMC4081100.

The list shows a part of the results, in another mix than the full data. For some assays here: At the low end of the ranking, values are background and their order means little. Some of the results follow. For some assays here: Construct or isoform of the protein are uncertain.

What all share (assay): universal protein binding microarray (PBM)
Common to all, as to details: transcription factors of Arabidopsis thaliana; high values mean tight binding; most listed sequences are background and not binding sites; double strand, one strand shown

Experiment [1] deals with GST-NTL6(1-168) (UniProt Q9SCK6).
In experiment [2] the target is T1, GST-NST2(1-184) (UniProt Q9M274).
T1 sequence: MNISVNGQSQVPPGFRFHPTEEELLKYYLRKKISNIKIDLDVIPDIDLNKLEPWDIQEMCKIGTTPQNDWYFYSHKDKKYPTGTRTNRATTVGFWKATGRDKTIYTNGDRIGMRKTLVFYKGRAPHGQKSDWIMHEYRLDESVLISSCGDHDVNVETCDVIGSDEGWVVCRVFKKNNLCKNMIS

Experiment [3] addresses T2, GST-NTL8 NAC domain (UniProt Q9XIN7).
T2 sequence: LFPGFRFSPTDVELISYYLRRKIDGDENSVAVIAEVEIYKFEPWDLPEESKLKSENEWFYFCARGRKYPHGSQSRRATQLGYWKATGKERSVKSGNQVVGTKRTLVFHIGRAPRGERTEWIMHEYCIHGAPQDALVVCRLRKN

Experiment [4] addresses T3, GST-VOZ2 (Arabidopsis thaliana) (UniProt Q9SLB9).
T3 sequence: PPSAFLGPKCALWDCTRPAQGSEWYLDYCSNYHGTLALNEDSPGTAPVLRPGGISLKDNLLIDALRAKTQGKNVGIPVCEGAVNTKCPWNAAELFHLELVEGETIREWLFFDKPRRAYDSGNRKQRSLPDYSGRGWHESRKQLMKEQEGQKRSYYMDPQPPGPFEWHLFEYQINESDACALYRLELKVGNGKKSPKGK

Experiment [5] deals with GST-WRKY1(266-371) (UniProt Q9SI37).
Experiment [6] deals with T4, GST-NAP(1-166) (UniProt O49255).
T4 sequence: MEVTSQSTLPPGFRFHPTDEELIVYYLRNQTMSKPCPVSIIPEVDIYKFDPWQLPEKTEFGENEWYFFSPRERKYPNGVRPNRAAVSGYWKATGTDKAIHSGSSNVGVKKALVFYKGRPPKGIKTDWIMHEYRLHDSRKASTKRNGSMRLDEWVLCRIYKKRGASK

The target in experiment [7] is T5, GST-ATAF1 NAC domain (UniProt Q39013).
T5 sequence: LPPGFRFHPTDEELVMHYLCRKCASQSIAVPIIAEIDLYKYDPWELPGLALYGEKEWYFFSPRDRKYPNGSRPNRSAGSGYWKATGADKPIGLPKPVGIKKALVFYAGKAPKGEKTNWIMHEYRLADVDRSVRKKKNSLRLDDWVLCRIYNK

The target in experiment [8] is T6, GST-ANAC019 NAC domain (UniProt Q9C932).
T6 sequence: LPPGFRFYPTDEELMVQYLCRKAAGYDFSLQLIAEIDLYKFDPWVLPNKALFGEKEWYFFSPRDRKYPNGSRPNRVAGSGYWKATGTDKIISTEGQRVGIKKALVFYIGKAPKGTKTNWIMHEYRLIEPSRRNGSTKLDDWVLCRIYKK

The target of experiment [9] is T7, GST-ANAC055(1-171) (UniProt Q9LDY8).
T7 sequence: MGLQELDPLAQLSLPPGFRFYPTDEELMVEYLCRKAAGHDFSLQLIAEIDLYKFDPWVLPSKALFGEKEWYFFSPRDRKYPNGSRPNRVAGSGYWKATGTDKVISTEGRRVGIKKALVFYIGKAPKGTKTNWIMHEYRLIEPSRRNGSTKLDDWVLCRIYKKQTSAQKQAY

The target in experiment [10] is T8, GST-ANAC092(1-285) full length (UniProt Q9FKA0).
T8 sequence: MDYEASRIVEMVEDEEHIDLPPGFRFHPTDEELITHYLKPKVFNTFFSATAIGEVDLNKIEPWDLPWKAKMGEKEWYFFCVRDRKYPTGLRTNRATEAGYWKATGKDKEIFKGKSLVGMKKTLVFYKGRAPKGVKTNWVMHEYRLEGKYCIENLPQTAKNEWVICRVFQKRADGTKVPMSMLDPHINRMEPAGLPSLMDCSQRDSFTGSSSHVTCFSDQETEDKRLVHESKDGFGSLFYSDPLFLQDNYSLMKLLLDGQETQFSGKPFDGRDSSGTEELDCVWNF

Chain of UniProt Q9SI37 (Q9SI37 266-371): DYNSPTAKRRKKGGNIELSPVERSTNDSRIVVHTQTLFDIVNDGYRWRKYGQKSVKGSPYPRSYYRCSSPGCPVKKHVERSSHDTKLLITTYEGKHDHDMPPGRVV

On to ATAGCGTG, for which the binding signal was 0.0569 E-score in [1]; 0.332 E-score in experiment [2]; -0.0447 E-score in experiment [3]; 0.0483 E-score in experiment [4]; -0.0469 E-score in [5].

ATACGTAT: the binding signal is 0.12 E-score in experiment [1]; 0.445 E-score in experiment [6]; 0.0214 E-score in experiment [3]; 0.112 E-score in experiment [4]; -0.0155 E-score in experiment [5].

For CACGAAAC, the binding signal was 0.112 E-score in experiment [1]; 0.208 E-score in [6]; 0.137 E-score in [3]; 0.125 E-score in experiment [4]; -0.132 E-score in [5].

Regarding ACGCTAAC, the binding signal in [1] was -0.0376 E-score; in [3], -0.0862 E-score; in [4], 0.187 E-score; in [5] it was -0.105 E-score.

For the sequence ATTGCGTA, the binding signal in experiment [1] was 0.0289 E-score; in [6], 0.423 E-score; in experiment [4], 0.172 E-score; in [5] it was -0.112 E-score.

As for ACGCATCC, the binding signal was 0.0213 E-score in experiment [1]; 0.195 E-score in [7]; -0.0634 E-score in [3]; 0.166 E-score in experiment [4]; -0.0288 E-score in [5].

With AAGTAAGC, the binding signal is 0.404 E-score in [1]; 0.199 E-score in experiment [7]; 0.337 E-score in experiment [3]; -0.0642 E-score in experiment [4]; -0.073 E-score in [5].

Regarding TACGGCAA, the binding signal in experiment [1] is 0.0375 E-score; in experiment [3] it was 0.192 E-score; in experiment [4], -0.0465 E-score; in [5], -0.0196 E-score.

ATGTCGTG: the binding signal in [1] was -0.0866 E-score; in [3], -0.0268 E-score; in experiment [4], -0.0567 E-score; in [5] it was 0.0308 E-score.

As for ATTCCGTG, the binding signal in [1] was 0.129 E-score; in [6] it was 0.329 E-score; in experiment [3], -0.0124 E-score; in [4], -0.064 E-score; in experiment [5] it was -0.0779 E-score.

AAGCAACA: the binding signal is -0.111 E-score in [8]; 0.0645 E-score in [7]; -0.0279 E-score in [6]; 0.194 E-score in experiment [3]; 0.103 E-score in [4]; 0.0315 E-score in [5].

As for CAAGTAAC, the binding signal is 0.316 E-score in [1], 0.298 E-score in experiment [2], -0.00868 E-score in [4] and -0.0394 E-score in [5].

ACGGCAAC: the binding signal in experiment [1] was -0.011 E-score; in experiment [7], 0.288 E-score; in [3], 0.0385 E-score; in [4], -0.137 E-score; in experiment [5] it was -0.105 E-score.

Turning to AAGCAACC, the binding signal in experiment [8] is 0.0254 E-score; in experiment [6], -0.171 E-score; in [3] it was 0.301 E-score; in experiment [4], 0.101 E-score; in [5], -0.159 E-score.

As to TAACGTGA, the binding signal was 0.0647 E-score in experiment [1]; 0.257 E-score in [2]; 0.0325 E-score in experiment [3]; 0.0616 E-score in experiment [4]; -0.09 E-score in experiment [5].

As to ACGTATCT, the binding signal was 0.0824 E-score in experiment [1]; 0.393 E-score in [6]; -0.0604 E-score in [3]; 0.0213 E-score in [4]; -0.01 E-score in experiment [5].

Regarding GTTACTTA, the binding signal in experiment [8] was 0.0988 E-score; in experiment [7] it was 0.256 E-score; in experiment [6] it was 0.113 E-score; in [3], 0.286 E-score; in [4] it was 0.119 E-score; in experiment [5] it was -0.0173 E-score.

Regarding AAACGTAA, the binding signal in [8] is 0.268 E-score; in experiment [7] it was 0.296 E-score; in experiment [4], -0.00646 E-score; in experiment [5], 0.0087 E-score.

GTACGAAA: the binding signal in experiment [1] was 0.184 E-score; in [2] it was 0.285 E-score; in experiment [4], 0.123 E-score; in experiment [5], -0.106 E-score.

In the case of ACGTTAAC, the binding signal was 0.00681 E-score in experiment [1], -0.0371 E-score in [3], 0.0403 E-score in experiment [4] and -0.00305 E-score in [5].

As to AAGCGTAA, the binding signal in experiment [8] is 0.168 E-score; in [2], 0.212 E-score; in [3], 0.0159 E-score; in experiment [4], 0.0143 E-score; in experiment [5] it was -0.08 E-score.

Consider ACACGCGA, for which the binding signal is -0.00339 E-score in experiment [8]; 0.0222 E-score in [9]; 0.0172 E-score in [7]; 0.147 E-score in experiment [6]; 0.212 E-score in experiment [2]; 0.018 E-score in [3]. Besides, the binding signal is 0.0778 E-score in [4] and -0.0236 E-score in experiment [5].

On to ATACGGCA, for which the binding signal in [1] was -0.0469 E-score; in experiment [10], 0.433 E-score; in experiment [2] it was 0.0642 E-score; in experiment [3] it was -0.039 E-score; in experiment [4], 0.00305 E-score; in [5] it was -0.0513 E-score.

For CTTAAGTA, the binding signal in experiment [1] was 0.416 E-score; in experiment [10] it was 0.198 E-score; in [6], 0.0567 E-score; in experiment [2], 0.207 E-score; in [4] it was 0.112 E-score; in experiment [5], -0.0177 E-score.

With ACACGGAA, the binding signal in experiment [9] was 0.481 E-score; in experiment [10], 0.458 E-score; in experiment [6] it was 0.45 E-score; in [3], 0.02 E-score; in experiment [4] it was -0.161 E-score; in [5], 0.0128 E-score.

For AAGGGTAA, the binding signal in experiment [1] is 0.194 E-score; in [10], 0.134 E-score; in experiment [6], 0.117 E-score; in experiment [3], 0.444 E-score; in [4] it was 0.0298 E-score; in [5], -0.0799 E-score.

As for ACGTCATC, the binding signal was -0.0183 E-score in experiment [1], -0.0287 E-score in [3], -0.0468 E-score in experiment [4] and 0.0494 E-score in experiment [5].

Take ACGCAACA: the binding signal was 0.0917 E-score in [1]; 0.484 E-score in experiment [10]; 0.399 E-score in [6]; 0.0984 E-score in experiment [3]; 0.215 E-score in [4]; -0.0594 E-score in experiment [5].

Take TAAGGAAA: the binding signal in experiment [8] was 0.00218 E-score; in experiment [3], 0.424 E-score; in experiment [4], 0.0254 E-score; in [5], -0.0601 E-score.

Consider ACGTAATA, for which the binding signal in experiment [9] was 0.375 E-score; in experiment [4], 0.0984 E-score; in experiment [5] it was 0.0177 E-score.

As to CTAACGTA, the binding signal in [1] is 0.00293 E-score; in experiment [6], 0.173 E-score; in experiment [3], -0.00357 E-score; in experiment [4], 0.0148 E-score; in [5], -0.0123 E-score.

Take ACGTTACT: the binding signal was 0.0863 E-score in experiment [1]; 0.439 E-score in experiment [10]; 0.249 E-score in experiment [6]; 0.268 E-score in experiment [2]; 0.233 E-score in experiment [3]; 0.0652 E-score in experiment [4]. Besides, the binding signal in experiment [5] is -0.00626 E-score.

For the sequence AAGCAAAC, the binding signal is -0.0058 E-score in experiment [8]; 0.194 E-score in [9]; 0.137 E-score in experiment [7]; 0.119 E-score in [6]; 0.336 E-score in [3]; 0.0951 E-score in experiment [4]. This sequence returned a binding signal in experiment [5] of -0.0166 E-score.
